No constants are given. Whether binding was seen depends on the method and setting. Binding seen in cells or lysates may run through a third protein. Some binding calls cover weakened binding; strength is not graded here. For some of these results: Tags and fused reporters may be left off the sequences shown.
B1: Myc-tagged EBF1 (early B cell factor-1) (protein, UniProt Q07802 1-591)
chain: MFGIQESIQRSGSSMKEEPLGSGMNAVRTWMQGAGVLDANTAAQSGVGLARAHFEKQPPSNLRKSNFFHFVLALYDRQGQPVEIERTAFVGFVEKEKEANSEKTNNGIHYRLQLLYSNGIRTEQDFYVRLIDSMTKQAIVYEGQDKNPEMCRVLLTHEIMCSRCCDKKSCGNRNETPSDPVIIDRFFLKFFLKCNQNCLKNAGNPRDMRRFQVVVSTTVNVDGHVLAVSDNMFVHNNSKHGRRARRLDPSEGTPSYLEHATPCIKAISPSEGWTTGGATVIIIGDNFFDGLQVIFGTMLVWSELITPHAIRVQTPPRHIPGVVEVTLSYKSKQFCKGTPGRFIYTALNEPTIDYGFQRLQKVIPRHPGDPERLPKEVILKRAADLVEALYGMPHNNQEIILKRAADIAEALYSVPRNHNQLPALANTSVHAGMMGVNSFSGQLAVNVSEASQATNQGFTRNSSSVSPHGYVPSTTPQQTNYNSVTTSMNGYGSAAMSNLGGSPTFLNGSAANSPYAIVPSSPTMASSTSLPSNCSSSSGIFSFSPANMVSAVKQKSAFAPVVRPQTSPPPTCTSTNGNSLQAISGMIVPPM
B2: endogenous EBF1 of mouse pre-B cells (protein, UniProt Q07802 1-591)
chain: B1 chain
B3: endogenous EBF1 of human BJAB cells (protein, UniProt Q9UH73 1-591)
chain: B1 chain
B4: Myc-tagged E47 (E2A isoform) (protein, UniProt E9PVV2 1-649)
chain: MMNQSQRMAPVGSDKELSDLLDFSMMFPLPVANGKSRPASLGGTQFAGSGLEDRPSSGSWGSSDQNSSSFDPSRTYSEGAHFSDSHSSLPPSTFLGAGLGGKGSERNAYATFGRDTSVGTLSQAGFLPGELSLSSPGPLSPSGIKSSSQYYPSFPSNPRRRAADGGLADTQPKKVRKVPPGLPSSVYPPSSGDSYSRDAAAYPSAKTPSSAYPSPFYVADGSLHPSAELWSTPSQVGFGPMLGDGSSPLPLAPGSSSVGSGTFGGLQQQDRMGYQLHGSEVNGSLPAVSSFSAAPGTYSGTSGHTPPVSGAAAESLLGTRGTTASSSGDALGKALASIYSPDHSSNNFSPSPSTPVGSPQGLPGTSQWPRAGAPSALSPNYDAGLHGLSKMEDRLDEAIHVLRSHAVGTASDLHGLLPGHGALTTSFTGPMSLGGRHAGLVGGSHPEEGLTSGASLLHNHASLPSQPSSLPDLSQRPPDSYSGLGRAGTTAGASEIKREEKEDEEIASVADAEEDKKDLKVPRTRTSSTDEVLSLEEKDLRDRERRMANNARERVRVRDINEAFRELGRMCQLHLKSDKAQTKLLILQQAVQVILGLEQQVRERNLNPKAACLKRREEEKVSGVVGDPQLALSAAHPGLGEAHNPAGHL

Sequences of proteins named here, by UniProt entry; tags and fusion partners are left off. A change or cut given only in a name is not applied to a line headed by its entry. A line that says so, or that is headed by a name, gives the form on record, which may keep a tag or linker.
FLAG-tagged WT MEF2C (myocyte enhancer factor 2C) (Q8CFN5, form named): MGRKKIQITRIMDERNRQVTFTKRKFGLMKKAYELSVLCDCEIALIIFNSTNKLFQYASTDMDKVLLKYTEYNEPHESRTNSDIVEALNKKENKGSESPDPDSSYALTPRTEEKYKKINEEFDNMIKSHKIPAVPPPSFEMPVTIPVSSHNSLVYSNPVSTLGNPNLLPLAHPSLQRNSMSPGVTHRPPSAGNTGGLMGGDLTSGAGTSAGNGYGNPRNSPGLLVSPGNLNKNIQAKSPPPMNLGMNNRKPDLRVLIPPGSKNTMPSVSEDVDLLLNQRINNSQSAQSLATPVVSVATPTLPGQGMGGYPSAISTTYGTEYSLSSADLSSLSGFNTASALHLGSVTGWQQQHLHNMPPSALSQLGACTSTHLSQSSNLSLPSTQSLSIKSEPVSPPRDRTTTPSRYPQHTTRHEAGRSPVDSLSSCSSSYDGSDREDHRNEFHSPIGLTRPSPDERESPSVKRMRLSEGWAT
UniProt Q06413: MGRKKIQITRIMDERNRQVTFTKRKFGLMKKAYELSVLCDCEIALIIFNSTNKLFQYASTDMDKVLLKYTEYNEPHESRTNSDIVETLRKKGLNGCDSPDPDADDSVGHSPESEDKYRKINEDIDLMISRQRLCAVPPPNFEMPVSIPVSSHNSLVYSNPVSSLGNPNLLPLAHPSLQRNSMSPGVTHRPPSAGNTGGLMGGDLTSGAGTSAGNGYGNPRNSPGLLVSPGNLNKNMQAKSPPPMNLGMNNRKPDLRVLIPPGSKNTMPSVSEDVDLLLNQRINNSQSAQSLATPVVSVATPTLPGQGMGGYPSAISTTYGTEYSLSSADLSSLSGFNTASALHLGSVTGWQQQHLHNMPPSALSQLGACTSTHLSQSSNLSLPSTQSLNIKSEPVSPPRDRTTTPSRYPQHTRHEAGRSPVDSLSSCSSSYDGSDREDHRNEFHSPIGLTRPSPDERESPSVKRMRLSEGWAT

Assays:
[1] = molecular target: FLAG-tagged WT MEF2C (myocyte enhancer factor 2C) (UniProt Q8CFN5); test: co-IP; 293T cells co-transfected; lysis in 50mM HEPES, 140mM NaCl, 1mM EDTA, 0.5% Triton-X, 0.5% sodium deoxycholate; overnight IP with anti-FLAG M2 (MEF2C as bait); washed with high-salt lysis buffer (500mM NaCl); blotted with anti-Myc or anti-V5; for WT MEF2C and EBF1 also with benzonase treatment, which did not prevent co-IP
[2] = molecular target: endogenous MEF2C of mouse pre-B cells (mouse (endogenous in AMuLV-transformed pre-B cells)) (UniProt Q8CFN5); test: co-IP; endogenous proteins; mouse pre-B cells and human BJAB cells cross-linked for 10 minutes with 1% formaldehyde; overnight IP with MEF2C antibodies (Cell Signaling 5030) or control normal rabbit IgG; washed with high-salt lysis buffer; immunoblotted with EBF1 antibody
[3] = molecular target: endogenous MEF2C of human BJAB cells (human (endogenous in BJAB)) (UniProt Q06413); test: as above

binding [1]	also measured	Binder
binds	–	B1
–	binding [2]: binds	B2
–	binding [3]: binds	B3
no binding	–	B4

Source: article PMC4762780
